In the antibiotic and cytotoxicity screens of Wong et al. (2023):
The other results are listed elsewhere or left out.

Legend:
[1] = test system: HSkMC (human skeletal muscle cells); test: cytotoxicity call (relative viability < 0.9); conditions: 10 µM
[2] = test system: HepG2; test: cytotoxicity call (relative viability < 0.9); conditions: 10 µM
[3] = test system: S. aureus RN4220; test: growth inhibition call (relative growth <= 0.2); conditions: 50 µM

SMILES | cytotoxicity call [1] | cytotoxicity call [2] | growth inhibition call [3]
CCCC#Cc1ccc2c(c1)O[C@H](CN(C)S(=O)(=O)c1cccc(F)c1)[C@H](C)CN([C@@H](C)CO)S2(=O)=O | inactive | inactive | inactive
C[C@@H]1CCCCO[C@H](CN(C)C(=O)Nc2ccc(F)cc2)[C@H](C)CN([C@@H](C)CO)C(=O)c2cc(NC(=O)Cc3ccccc3)ccc2O1 | inactive | inactive | inactive
C[C@@H]1CCCCO[C@H](CN(C)Cc2ccc(C(=O)O)cc2)[C@H](C)CN([C@H](C)CO)C(=O)c2cc(NS(=O)(=O)c3ccc(Cl)cc3)ccc2O1 | inactive | inactive | inactive
C[C@H]1CN([C@@H](C)CO)S(=O)(=O)c2ccc(C#CCC3CCCC3)cc2O[C@H]1CN(C)C(=O)CN(C)C | inactive | active | inactive
O=C(CN1CCOCC1)N[C@H]1CC[C@H](CCNC(=O)Nc2cc(F)ccc2F)O[C@@H]1CO | inactive | inactive | inactive
C[C@@H]1CCCCO[C@H](CN(C)Cc2ccc(Cl)c(Cl)c2)[C@H](C)CN([C@@H](C)CO)C(=O)c2cc(NS(=O)(=O)c3cn(C)cn3)ccc2O1 | inactive | inactive | inactive
CN(C)CC(=O)N[C@H]1CC[C@@H](CC(=O)O)O[C@@H]1CO | inactive | inactive | inactive
COc1ccc(S(=O)(=O)Nc2ccc3c(c2)C(=O)N([C@@H](C)CO)C[C@@H](C)[C@@H](CN(C)C(=O)Nc2ccccc2)OCCCC[C@H](C)O3)cc1 | inactive | inactive | inactive
C[C@@H]1CN([C@H](C)CO)C(=O)Cc2cc(NC(=O)CCN3CCOCC3)ccc2O[C@@H]1CN(C)C(=O)Nc1ccc2c(c1)OCO2 | inactive | inactive | inactive
CCN1CC2(CCN(C(=O)[C@H]3CCC(=O)N3)CC2)COc2ccccc2S1(=O)=O | inactive | inactive | inactive
CC(=O)Oc1ccccc1C(=O)O | inactive | inactive | inactive
COCC(=O)N1C[C@@H](C)[C@@H](OC)CN(C)C(=O)c2cc(NC(=O)c3ccc(OC)cc3)ccc2OC[C@@H]1C | inactive | inactive | inactive
O=C(N1CCOCC1)[C@@]1(CCS(=O)(=O)c2ccccc2)COC(c2ccc(OCCCO)cc2)=N1 | inactive | inactive | inactive
CC(C)=CC1C(C(=O)O)C1(C)C (stereo not given) | inactive | inactive | inactive
CO[C@@H]1CN(C)C(=O)c2cc(NC(=O)Nc3ccccc3Cl)ccc2OC[C@@H](C)N(Cc2ccccc2C(=O)O)C[C@H]1C | inactive | inactive | inactive
O=C(C[C@@H]1CC[C@H](NC(=O)Cc2ccccn2)[C@@H](CO)O1)NCCc1ccncc1 | inactive | inactive | inactive
COc1ccc(CN(C)C[C@@H]2OCCCC[C@@H](C)Oc3ccc(NC(=O)c4ccncc4)cc3C(=O)N([C@@H](C)CO)C[C@@H]2C)cc1 | inactive | inactive | inactive
C[C@H]1CN([C@@H](C)CO)C(=O)CCCn2cc(nn2)CO[C@@H]1CN(C)S(=O)(=O)c1ccc(C#N)cc1 | inactive | inactive | inactive
COC(=O)C[C@@H]1CC[C@@H]2[C@H](COC[C@@H](O)CN2S(=O)(=O)c2ccc(F)cc2)O1 | inactive | inactive | inactive
COc1cc2c(cc1OC)CN(C(=O)[C@@H]1[C@H]3C(=O)O[C@H](c4ccccc4)[C@H](c4ccccc4)N3[C@H](c3ccc(OCCO)cc3)[C@@]13C(=O)Nc1ccc(C#CCCO)cc13)CC2 | inactive | inactive | inactive
C=CCOC(=O)[C@@H]1[C@H]2C(=O)O[C@H](c3ccccc3)[C@H](c3ccccc3)N2[C@H](c2ccc(OCCOC(=O)NCCCCCC(=O)NO)cc2)[C@]12C(=O)Nc1ccc(I)cc12 | inactive | inactive | inactive
C[C@H](CO)N1C[C@H](C)[C@@H](CN(C)C)Oc2ccc(NC(=O)Cc3cn(C)c4ccccc34)cc2CC1=O | inactive | inactive | inactive
C[C@@H]1CN([C@H](C)CO)C(=O)c2cc(C#CC3(O)CCCC3)cnc2O[C@H]1CN(C)C(=O)Cc1ccncc1 | inactive | inactive | inactive
COc1ccc(-c2ccc3n(c2=O)C[C@H]2[C@H](CO)[C@@H](C(=O)NCC4CC4)[C@@H]3N2S(C)(=O)=O)cc1 | inactive | inactive | inactive
C[C@H](CO)N1C[C@H](C)[C@H](CN(C)C(=O)Nc2cccc3ccccc23)Oc2c(NS(=O)(=O)c3cccs3)cccc2C1=O | inactive | inactive | inactive
